Laboratory results as given in a compilation of properties of binary mixtures (doi:10.1016/j.jct.2008.09.003).
The densities may have been worked out from excess volumes.

Experiment: xn = mol fraction of the nth substance listed
Conditions: 101 kPa

SMILES: CCCC[n+]1ccn(C)c1.F[P-](F)(F)(F)(F)F + CN1CCCC1=O
- mass density (298.15 K, x2 = 0.1062): 1351.1 kg/m3
- mass density (298.15 K, x2 = 0.2152): 1332.3 kg/m3
- mass density (298.15 K, x2 = 0.3116): 1312.9 kg/m3
- mass density (298.15 K, x2 = 0.4127): 1289.4 kg/m3
- mass density (298.15 K, x2 = 0.6131): 1230.8 kg/m3
- mass density (298.15 K, x2 = 0.7116): 1193.8 kg/m3
- mass density (298.15 K, x2 = 0.809): 1149.7 kg/m3
- mass density (303.15 K, x2 = 0.1062): 1348.5 kg/m3
- mass density (303.15 K, x2 = 0.2152): 1329.7 kg/m3
- mass density (303.15 K, x2 = 0.3116): 1310.3 kg/m3
- mass density (303.15 K, x2 = 0.4127): 1286.7 kg/m3
- mass density (303.15 K, x2 = 0.5149): 1259.1 kg/m3
- mass density (303.15 K, x2 = 0.809): 1146.5 kg/m3
- mass density (303.15 K, x2 = 0.9047): 1092.6 kg/m3
- mass density (308.15 K, x2 = 0.1062): 1343.5 kg/m3
- mass density (308.15 K, x2 = 0.2152): 1324.9 kg/m3
- mass density (308.15 K, x2 = 0.3116): 1305.5 kg/m3
- mass density (308.15 K, x2 = 0.4127): 1281.9 kg/m3
- mass density (308.15 K, x2 = 0.5149): 1254.3 kg/m3
- mass density (308.15 K, x2 = 0.6131): 1223.2 kg/m3
- mass density (308.15 K, x2 = 0.7116): 1186.1 kg/m3
- mass density (308.15 K, x2 = 0.9047): 1087.7 kg/m3
- mass density (313.15 K, x2 = 0.2152): 1321 kg/m3
- mass density (313.15 K, x2 = 0.5149): 1250.5 kg/m3
- mass density (313.15 K, x2 = 0.6131): 1219.3 kg/m3
- mass density (313.15 K, x2 = 0.809): 1137.6 kg/m3
- mass density (313.15 K, x2 = 0.9047): 1083.5 kg/m3
